Tested on: multi-strain LAB culture
Assay: SSF of control mash with 1% w/w infected mash, AA13 candidates, HPLC of organic acids and ethanol (Example 3)
Format: cell-based
Details: SSF 32° C. up to 24 hours, 20% DS; for % delta Ethanol / % delta Lactic Acid: vs No Treatment
Experimental: A control mash was prepared in-house with an industry relevant blend of AA369 and Protease Pfu using a Lab-O-Mat incubator for 2 hours at 85° C. and 36% DS to simulate typical industry conditions. The mash was then frozen prior to use in SSF. An infected mash was prepared by infecting the control mash with a multi-strain LAB culture grown in MRS. The bacteria in control mash was incubated overnight, and then frozen with 20% glycerol. For this experiment, 1% weight/weight of the infected mash was mixed into the control mash. This mimics an infection event at a large-scale ethanol facility. For SSF, all mash was prepared with 1000 ppm of urea to aid with yeast fermentation. All treatments were dosed with a baseline commercial glucoamylase GSA, while AA13 candidates were dosed at either 10 ug/g-DS or 50 ug/g-DS. SSF was performed at 5 g scale with 10 uL/g rehydrated Ethanol Red yeast at 32° C. for up to 24 hours at 20% DS. At the end of fermentation, samples were deactivated with 50 uL of 40% sulfuric acid and then centrifuged. The supernatant was filtered through a 0.2 μm filter and then measured for soluble carbohydrates and organic acids using an ion-exchange H-column on HPLC.

B1: Pestalotiopsis sp-71627: Pestalotiopsis sp-71627 AA13 polypeptide of SEQ ID NO: 148 (protein)
chain: MFALPALLFAASVSGHGYLTIPSSRTRLGFEAGTDTCPECTILEPVSSWPDLDVAAVGRSGVCGYNARVSVDYNFPASTWGSNTVATYSPGQIVDVQWCVDNNGDHGGMFSYRICQDQSVVDKFLTPGYIPTDAEKQAGEDCFDAGLLPCTDVSGQVCDYSPDCTAGQACYRNDWFTCNAFGATDRRGCEGVDNAPLNSCKTTIAGGYTVSKQIKIPDYVSNHTLLQFKWNSFQTGQIYISCADIAISGSGSSPAPAPGTTLTTSKTTATTTSTKTTTSAASTSTATCVAAANVAVTFNEVVTTAYGETIKIAGSIAALGSWDPSSAPALSASAYTTANPLWSRTVSLPAGTAFEYKFVRVSASGAITWESDPNRSYTVPTCGSTATVGTSWK
modifications: Pestalotiopsis sp-71627
average Ethanol (AA13 dose 10 ug/g-DS): 78.0 g/L
average Lactic Acid (AA13 dose 10 ug/g-DS): 3.3 g/L
% delta Ethanol (AA13 dose 10 ug/g-DS): 0.5%
% delta Lactic Acid (AA13 dose 10 ug/g-DS): 0.0%
average Ethanol (AA13 dose 50 ug/g-DS): 78.0 g/L
average Lactic Acid (AA13 dose 50 ug/g-DS): 3.4 g/L
% delta Ethanol (AA13 dose 50 ug/g-DS): 0.4%
% delta Lactic Acid (AA13 dose 50 ug/g-DS): 2.9%

B2: Paraphoma sp.: Paraphoma sp. AA13 polypeptide of SEQ ID NO: 134 (protein, listed as Paraphoma sp.)
chain: MRSSVAFLSAFVASVQAHGYLSSPMSRTGLNAQAGADTCPECTILEPVTAWPDLDSAAVGRSGPCGYNARVSVDYNQPGPRWGSQPVITYTAGDTVDVQWCVDNNGDHGGMFAYRICQNQALVDKLLTPGYLPTDAEKQAAEDCFEAGTLKCTDVNGQSCGFNPDCQQGQACWRNDWFTCGGFQEGTKCRGVDNAPINSCYTSIAGGYTVTKRIKIPNYASNHTLLSLKWNSFQTPQIYLTCADIKINGAGGTTPNPPTSSRPATSTTTTSATSSAVATGCATPAATVAVTFNSKTTTVVGQTIKIAGSISQLGSWNTANAPALSASAYTSSNPLWSTTINLPAGTSFEYKFIKVESSGTVTYESGANRAYTVPRDCTGKATVDTQWK
average Ethanol (AA13 dose 10 ug/g-DS): 78.5 g/L
average Lactic Acid (AA13 dose 10 ug/g-DS): 3.4 g/L
% delta Ethanol (AA13 dose 10 ug/g-DS): 1.2%
% delta Lactic Acid (AA13 dose 10 ug/g-DS): 1.4%
average Ethanol (AA13 dose 50 ug/g-DS): 77.8 g/L
average Lactic Acid (AA13 dose 50 ug/g-DS): 3.5 g/L
% delta Ethanol (AA13 dose 50 ug/g-DS): 0.2%
% delta Lactic Acid (AA13 dose 50 ug/g-DS): 6.9%

B3: Myrothecium sp.: Myrothecium sp AA13 polypeptide of SEQ ID NO: 133 (protein, listed as Myrothecium sp.)
chain: MKTTTIVPFLSLVSQVVGHGYMVIPSSRTRLGAEAKLDSCPECTILEPVSAWPDLDVAQVGRSGPCGYNARVSIDYNRPSANWGTKPVATYTPGQTVDVQWCVDNNGDHGGMFSWRVCHDQAIVDKLLDPDRTPTDAEKQAAEDCFEAGLLPCTDVSGQSCGYSPDCTQGQACWRNDWFTCNAFSGDSGKRGCQGVDGSALGSCYTSIAGGYTVTKKVKMPEIVSNHTLLSLRWNSFQTGQVYLTCADIAITDSGSGGTPTNPNPPTTTTCAAGASVKVTFNEQVKTVVGDSVRLVGSTAQLGSWDATKGVALSADKYTDAKPLWSATVEMAPGTQFSYKFVKVASGGAVTWESDPNRAYTVPTDCSKAYTLESTWK
average Ethanol (AA13 dose 10 ug/g-DS): 77.9 g/L
average Lactic Acid (AA13 dose 10 ug/g-DS): 3.3 g/L
% delta Ethanol (AA13 dose 10 ug/g-DS): 0.4%
% delta Lactic Acid (AA13 dose 10 ug/g-DS): −0.8%
average Ethanol (AA13 dose 50 ug/g-DS): 78.2 g/L
average Lactic Acid (AA13 dose 50 ug/g-DS): 3.3 g/L
% delta Ethanol (AA13 dose 50 ug/g-DS): 0.7%
% delta Lactic Acid (AA13 dose 50 ug/g-DS): −0.9%

B4: Penicillium sp-52627: Penicillium sp-52627 AA13 polypeptide of SEQ ID NO: 142 (protein)
chain: MKFTCLLALAGTLATVDAHGYLTIPSSRTRLGFEAGIDTCPECSILEPVESWPDLEAAQVGRSGPCGYNARVSVDYNQPGDYWGNSVVATYTGGDTVEVQWCVDNNGDHGGMFTYGICQNQTLVDLFLDPDYLPSTDEKQLAEDCFLEGELKCTDVDGQTCGYNPDCTSDEACYRNDWFTCNAFAATTNRGCEGVDGAAEYSCTTTISGGYTVTKKIKIPDYESDHTLLRFRWNSYQTGQIYLHCADIAISGSGSGSDSSTTSSSTATTSKATSTTSTATTTSTCTAATSISVTFDELVTTTYGENVYISGSISQLGSWDTSSAVALSASSYTSSNPLWMATISLPVGTSFEYKFIKKETDGSIVWESDPNRSYTVPTGCSGATATVSATWR
modifications: Penicillium sp-52627
average Ethanol (AA13 dose 10 ug/g-DS): 77.6 g/L
average Lactic Acid (AA13 dose 10 ug/g-DS): 3.4 g/L
% delta Ethanol (AA13 dose 10 ug/g-DS): 0.0%
% delta Lactic Acid (AA13 dose 10 ug/g-DS): 3.9%
average Ethanol (AA13 dose 50 ug/g-DS): 77.7 g/L
average Lactic Acid (AA13 dose 50 ug/g-DS): 3.3 g/L
% delta Ethanol (AA13 dose 50 ug/g-DS): 0.1%
% delta Lactic Acid (AA13 dose 50 ug/g-DS): 0.8%

B5: Talaromyces sayulitensis: Talaromyces sayulitensis AA13 polypeptide of SEQ ID NO: 150 (protein, listed as Talaromyces sayulitensis)
chain: MIVSIIVAAACFASAYGHGYLTIPASRTRLGFEAGIDICPECSILEPVTAWPDLETAQVGRSGPCGYNARVSVDYNQPGEYWGVEPVVTYMSGEVVEVQWCVDANGDHGGMFTYGVCQNQTLVDKFLTRGYLPTNDEKQAAENCFLEGELKCTDVSGQTCGYNPDCTAGEACWRNDWFTCNAFQANTARACEGVDGAPLNSCKTTIAGGYTVTKKIKIPDYSSNHTLLRFRWNSFQTAQVYLHCADIAISGSGNTTTSTSTSATSTAVSSCTATANLIPVTFRELVTTTWGENIFITGSISQLGSWSTGNAVALSASQYTASNPLWITTIDLPAGTTFEYKFIKKESDGSVIWESDPNRSYTVPTGCSSTIATAAASWR
average Ethanol (AA13 dose 10 ug/g-DS): 78.7 g/L
average Lactic Acid (AA13 dose 10 ug/g-DS): 3.4 g/L
% delta Ethanol (AA13 dose 10 ug/g-DS): 1.3%
% delta Lactic Acid (AA13 dose 10 ug/g-DS): 1.5%
average Ethanol (AA13 dose 50 ug/g-DS): 78.5 g/L
average Lactic Acid (AA13 dose 50 ug/g-DS): 3.4 g/L
% delta Ethanol (AA13 dose 50 ug/g-DS): 1.2%
% delta Lactic Acid (AA13 dose 50 ug/g-DS): 1.4%

B6: Acremonium sp. XZ1982: Acremonium sp. XZ1982 AA13 polypeptide of SEQ ID NO: 128 (protein)
chain: MKPASFFAHMGLVSSVLGHGYLTIPRSRTRLGAEAGIDTCPECTIREPVTAWPDLDQATVGRSGPCGFNARVSVDYNQPSANWGSAPVATYTRGQTVTVEWCVDNNGDHGGMFTYRICQDQALVDKLLTPGYLPTEAEKEAAERCFQRGTLPCTDVSGQSCGYNPDCQQGQACWRNDWFTCNAFQADSRRGCQGVDAAPLGSCYTSIAGGYRVTKQIKIPDYVSNHTLLSFKWNSFQTPQIYLSCADIAITGGTGAPNPGTTTTRMTATPTNTACAAASSVAVTFNQVATTSPGQTIKLVGSIQQLGSWNPSAAPALSASQYTSAKPLWSYTVTLAAGSTFQYKFVNVQADGTIRWESDPNRSYTVPRGCDQRVTVESTWR
modifications: Acremonium sp. XZ1982
average Ethanol (AA13 dose 10 ug/g-DS): 78.7 g/L
average Lactic Acid (AA13 dose 10 ug/g-DS): 3.0 g/L
% delta Ethanol (AA13 dose 10 ug/g-DS): 1.3%
% delta Lactic Acid (AA13 dose 10 ug/g-DS): −9.5%
average Ethanol (AA13 dose 50 ug/g-DS): 78.0 g/L
average Lactic Acid (AA13 dose 50 ug/g-DS): 3.2 g/L
% delta Ethanol (AA13 dose 50 ug/g-DS): 0.4%
% delta Lactic Acid (AA13 dose 50 ug/g-DS): −4.1%

Reference: patent US11795481B2, “Processes for producing a fermentation product” (Novozymes A/S, priority 2017, dated 2023)
